Results reported in PubChem BioAssay AID1347417 (National Center for Advancing Translational Sciences (NCATS), 2020).
Among all 120,000 compounds or so, about 5,300 (4.4%) were called active. The inconclusive results got no clear call from the source; some entries with a clear call stand among them for comparison. Calls come from the whole dose curve; as a rule, active = well fitted inhibition curve with a large enough effect; inconclusive = small, poorly fitted or top-dose-only effect; inactive = no such curve, though single readings can be large or run the other way. Where the call is inconclusive, the potency comes from a doubtful curve fit.
Potency is the fitted concentration of half-maximal effect; tags give direction and shape of the fitted curve.

Experiment: qHTS Primary assay for Inhibitors of Plasmodium falciparum Dd2 growth in vitro; note: nearly all actives have a fitted effect of over 65% in size;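 for activity, negative = inhibition: plate controls were DMSO vehicle for no effect and reference drug for full effect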
Conditions: P. falciparum Dd2 growth, SYBR Green, 72 h; activity, negative = inhibition: at 28.9 µM (top of the series) unless noted; series mostly up to 28.9 µM
Summary of the method: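 Readout: SYBR Green fluorescence, 485 nm excitation, 535 nm emission, after ~16 h lysis at 37C. Before that, Dd2-infected red cells (2.5% hematocrit) grew 72 h with compound, 29 uM top final concentration.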
With `COc1ccc(S(=O)(=O)N2C[C@@H]3C[C@H](C2)c2c(-c4ccc(NC(C)=O)cc4)ccc(=O)n2C3)cc1` the Potency was inconclusive: 14.1 µM [inhibitor, single point]. For `Cc1ccccc1S(=O)(=O)N1C[C@@H]2CCCN3CCC[C@@H]([C@H]23)[C@H]1CCCC(=O)N1CCOCC1`, the Potency was inconclusive: 20 µM [inhibitor, single point]. In the case of `C[S+](=O)([O-])N1CC2(CCN(Cc3ccc(Cl)cc3)C2)Cc2ccccc21` (stereo not drawn), the Potency is reported as inconclusive: 10 µM [inhibitor, partial curve, poor fit]. For `Cc1cc(C)cc(Nc2nc(C)cc(=O)n2CC(=O)Nc2cccc(C#N)c2)c1`, the Potency was inconclusive: 2.51 µM [inhibitor, partial curve, poor fit]. In the case of `CCC(=O)N1CCC(CC)(N2CCN(S(=O)(=O)c3ccccc3C(F)(F)F)CC2)C1` (stereo not drawn), the Potency is reported as inconclusive: 11.2 µM [inhibitor, single point]. In the case of `CNC(=O)c1cc(-c2cccnc2)cc2c1OCCN2Cc1cccnc1`, the “outcome” value is reported as “inactive [at 44.1 µM]”. In the case of `CCS(=O)(=O)N1CCc2cc(C(=O)Nc3cccc(C(C)=O)c3)ccc21`, the Potency is reported as inconclusive: 5.62 µM [inhibitor, partial curve, poor fit]. For `CC(C)CCn1c(Oc2ccccc2F)nc2c1c(=O)n(C)c(=O)n2C`, the Potency was inconclusive: 10 µM [inhibitor, single point]. With `CCCOc1cccc(C2c3c(-c4ccccc4O)n[nH]c3C(=O)N2Cc2ccco2)c1` (stereo not drawn) the Potency was active: 5.62 µM. For `Cc1ccc(C(=O)N2CCCC(n3cc(-c4nc(C5CC5)no4)nn3)C2)cc1F` (stereo not drawn), the Potency was inconclusive: 3.98 µM [inhibitor, single point]. In the case of `COc1ccc(CCN2CCC(CN(C)Cc3ccc(C#CCCO)cc3)CC2)cc1`, the Potency is reported as inconclusive: 5.62 µM [inhibitor, partial curve]. With `COc1ncccc1-c1cc(-c2ccccc2)nc2c(C)noc12` the Potency was inconclusive: 8.91 µM [inhibitor, partial curve]. For `Cc1ccc(NC(=O)Cn2c(-c3ccc(Cl)cc3)nc(C)c(CCO)c2=O)c(C)c1`, the Potency was inconclusive: 17.8 µM [inhibitor, single point]. In the case of `CCCn1cnc2cc(NCc3ccccc3OCC)ccc21`, the Potency is reported as inconclusive: 12.6 µM [inhibitor, single point]. In the case of `Fc1ccc(CNC[C@H]2Cn3cc(-c4ccccc4)nc3CO2)cc1`, the Potency is reported as inconclusive: 11.2 µM [inhibitor, partial curve, poor fit]. In the case of `O=[S+]([O-])(c1ccccc1)N1CCc2nc(C3CC3)nc(-c3ccc(Cl)cc3)c2C1`, the Potency is reported as inconclusive: 12.6 µM [inhibitor, single point]. In the case of `COc1ccc(C2Cn3nnc(C(=O)N4CCN(C(=O)c5ccc(F)cc5Cl)CC4)c3CO2)cc1` (stereo not drawn), the Potency is reported as inconclusive: 17.8 µM [inhibitor, single point]. With `COc1cccc(-c2noc(Nc3ccc(OC)c(OC)c3)n2)c1` the Potency was inconclusive: 12.6 µM [inhibitor, single point]. With `CN(C)C[C@@H]1CN(c2ncccn2)C[C@H]1NC(=O)c1cccc(Cl)c1` the “activity, negative = inhibition” value was inactive: -14.1%. With `Cc1ccc(CN2CCSc3ccc(C(=O)Nc4ccc(C)cc4)cc32)cc1` the Potency was inconclusive: 17.8 µM [inhibitor, single point]. In the case of `NC(=O)C1CCN(c2cc(-c3noc([C@@H]4CCCN4Cc4ccc(Cl)cc4)n3)ccn2)CC1`, the “activity, negative = inhibition” value is reported as inactive: -22.6%. In the case of `Cc1nn(-c2ccccc2)c(Oc2ccc(F)cc2F)c1CCC(=O)N(C)C(C)C`, the Potency is reported as inconclusive: 12.6 µM [inhibitor, partial curve, poor fit]. With `CCOC(=O)CNC(c1ccccc1)c1cc(Br)ccc1NC(=O)c1cccc(Cl)c1` (stereo not drawn) the Potency was inconclusive: 17.8 µM [inhibitor, single point]. With `CCc1ccc(NC(=O)C2CCCN(S(=O)(=O)c3ccc(F)cc3)C2)cc1` (stereo not drawn) the “activity, negative = inhibition” value was inactive: 3.58%. For `Cc1cc(C(=O)N2CCCn3ccnc3C2c2cnn(C)c2)c(C)o1` (stereo not drawn), the “activity, negative = inhibition” value was inactive: -18.9%. For `Cc1ccc(CN2C(=O)NC3(CCCN(C(=O)c4cc(Cl)ccc4F)C3)C2=O)cc1` (stereo not drawn), the Potency was inconclusive: 17.8 µM [inhibitor, single point]. With `COCCn1c(=O)n([C@H]2CCCN(C(=O)CC3CCCCC3)C2)c2ncccc21` the Potency was inconclusive: 0.316 µM [inhibitor, full curve, poor fit]. In the case of `Cc1ccsc1C(=O)NCCn1c(C)cnc1C1CCC1`, the Potency is reported as inconclusive: 14.1 µM [inhibitor, single point]. With `COc1ccc(C(=O)Nc2ccc(-c3noc([C@@H]4CCCN4Cc4ccncc4)n3)cn2)cc1` the Potency was inconclusive: 3.16 µM [inhibitor, single point]. With `Cc1ccc(OCC(=O)NCCC2CCN(C(=O)Nc3ccccc3F)CC2)cc1` the Potency was inconclusive: 11.2 µM [inhibitor, single point]. In the case of `CC(NC(=O)c1cc2n(n1)CC(c1ccc3c(c1)OCO3)OC2)c1ccccc1` (stereo not drawn), the “activity, negative = inhibition” value is reported as inactive: -16.1%. In the case of `O=C(c1ccccn1)N1CCOc2c(O)cc(-c3cccc(Cl)c3)cc2C1`, the Potency is reported as inconclusive: 10 µM [inhibitor, partial curve]. For `O=C1NCCCCCCN(Cc2ccc(F)c(F)c2)[C@H]2CCC[C@@H]12`, the Potency was inconclusive: 5.01 µM [inhibitor, partial curve, poor fit]. In the case of `Cc1ccc(C(=O)N2CCC3(CC2)Cc2ccccc2NC3=O)cc1`, the Potency is reported as inconclusive: 20 µM [inhibitor, partial curve, poor fit]. For `O=C(NCc1ccc2c(c1)OCO2)c1nc(-c2cccc(C(F)(F)F)c2)c2cnccn12`, the Potency was inconclusive: 2.82 µM [inhibitor, single point]. In the case of `Cc1ccc(C)c(Oc2nc3c(c(=O)n(C)c(=O)n3C)n2Cc2ccccc2)c1`, the Potency is reported as inconclusive: 11.2 µM [inhibitor, single point]. For `CCC1(N2CCN(S(=O)(=O)c3cccs3)CC2)CCN(S(C)(=O)=O)C1` (stereo not drawn), the “activity, negative = inhibition” value was inactive: -3.07%. In the case of `COC[C@@H]1[C@H](NC(=O)CCc2nc3ccc(F)cc3[nH]2)[C@@H]2CCO[C@H]12`, the “activity, negative = inhibition” value is reported as inactive: 1.77%. In the case of `CCOc1ccc(OCC)c(NC(=O)c2cnc(SC)nc2-c2ccccc2)c1`, the “activity, negative = inhibition” value is reported as inactive: -14.2%. With `Cc1ccc(C)c(NC(=O)CSc2nc3c([nH]c4ccccc43)c(=O)n2-c2ccc(F)cc2)c1` the Potency was inconclusive: 2.82 µM [inhibitor, full curve, poor fit]. With `CCOC(=O)c1cc(-c2ccccc2)n(CC(=O)Nc2ccc(CC)cc2)c1C` the “outcome” value was “inactive”. In the case of `Cn1ccc2c(C(=O)NCCc3cnc[nH]3)nc(-c3cccc(CO)c3)cc21`, the “outcome” value is reported as “inactive [at 44.1 µM]”. In the case of `CCc1noc(-c2cn(C3CCN(C(=O)c4ccc(N(C)C)cc4)CC3)nn2)n1`, the Potency is reported as inconclusive: 0.708 µM [inhibitor, partial curve]. In the case of `CC(C)CCNC(=O)N1CCC2(CC1)CC(N(Cc1ccc(F)cc1)C1CC1)CCO2` (stereo not drawn), the Potency is reported as inconclusive: 1.26 µM [inhibitor, partial curve, poor fit]. For `CCc1cccc(NC(=O)Cn2c(N3CCOCC3)nc(C)cc2=O)c1`, the Potency was inconclusive: 7.94 µM [inhibitor, single point]. In the case of `Cc1cccc(CSc2nc(-c3cccc(C)c3)nc3c2Cc2c(CO)cnc(C)c2O3)c1`, the Potency is reported as inconclusive: 17.8 µM [inhibitor, single point]. For `CCNC(=O)O[C@@H]1CO[C@H]2[C@@H]1OC[C@@H]2n1cc(C(=O)OC)nn1`, the “activity, negative = inhibition” value was inactive: 21.1% [at 44.1 µM]. In the case of `CCc1noc(CN(C(=O)c2oc3ccc(C)cc3c2C)C(C)C)n1`, the Potency is reported as inconclusive: 10 µM [inhibitor, single point]. With `CCN(CC)Cc1nc(C2(O)CCN(C3CCC(F)(F)CC3)CC2)cs1` the Potency was inconclusive: 6.31 µM [inhibitor, partial curve, poor fit]. In the case of `CC(=O)NC[C@@H]1C=C(C)[C@H](Cc2nc3ccc(F)cc3[nH]2)C[C@H]1C(C)C`, the Potency is reported as inconclusive: 11.2 µM [inhibitor, single point]. For `CC(C)(C)C(=O)N1CCC(c2nn(-c3ccccc3)c(=O)[nH]2)CC1`, the Potency was inconclusive: 8.91 µM [inhibitor, partial curve]. For `Cc1cccc(S(=O)(=O)c2cn(C)c3cc(N4CCN(c5ccc(F)cc5)CC4)c(F)cc3c2=O)c1`, the Potency was inconclusive: 0.794 µM [inhibitor, full curve, poor fit]. With `COc1ccc2c(c1)c(CN1C[C@@H](CO)[C@H](c3nc(C)no3)C1)cn2C` the Potency was active: 10 µM. With `CC(C)n1cnnc1-c1nn(C)c2c1CN(C(=O)Cc1c[nH]c3ccccc13)CC2` the Potency was active: 8.91 µM. In the case of `O=C(CSc1c2c(nc3cc(Cl)ccc13)CCCC2)N1CCN(c2ccccc2)CC1`, the Potency is reported as active: 11.2 µM. With `COc1cc(C)c(-c2nc(CN3CCOC(CCN)C3)c(C)o2)cc1C` (stereo not drawn) the Potency was inconclusive: 11.2 µM [inhibitor, partial curve, poor fit]. With `COCC1CN(C2CCC2)CC12CCN(C(=O)Cc1ccc(OC)cc1)CC2` (stereo not drawn) the Potency was inconclusive: 14.1 µM [inhibitor, partial curve, poor fit]. With `Cc1noc(C)c1-c1cc2c(cc(C)n2C)c(N2CCN(Cc3ccccc3)CC2)n1` the Potency was inconclusive: 3.55 µM [inhibitor, single point]. With `COCCNC(=O)[C@@H]1C[C@@H](O)CN1C1CCN(C(=O)C(C)C)CC1` the “activity, negative = inhibition” value was inactive: 4.03%. With `COCCNC(=O)C1CN(c2ccccc2)C(=O)N1` (stereo not drawn) the “activity, negative = inhibition” value was inactive: 12% [at 44.1 µM]. In the case of `CCOC(=O)c1noc2ncnc(N3CCN(c4cccc(C(F)(F)F)c4)CC3)c12`, the Potency is reported as inconclusive: 10 µM [inhibitor, single point]. For `CC1=C[C@@H](CNC2CCN(C)CC2)[C@H](C(C)C)C[C@H]1Cc1nc2ccccc2[nH]1`, the Potency was active: 7.08 µM. With `CC1CCN(C(=O)Cn2cc(SCC(=O)Nc3ccccc3)c3ccccc32)CC1` the “activity, negative = inhibition” value was inactive: -21.1%.
